Measurements as given in PubChem BioAssay (Tox21).
“And” between values parts separate entries of the source, which are not always exact repeats. Equal values may be shown once. The inconclusive results got no clear call from the source; some entries with a clear call stand among them for comparison. For some assays here: Potencies of inconclusive entries are doubtful fits and often do not repeat. The source made the active and inactive calls. Unless noted, calls come from the whole dose curve; as a rule, active = well fitted curve in the direction sought with a large enough effect in the repeat runs; inconclusive = weak or mixed curves; inactive = no such curve, though single readings can be large; an effect the other way counts as inactive or inconclusive.

How the values were obtained:
[1] = qHTS assay for identifying genotoxic compounds that show differential cytotoxicity against isogenic chicken DT40 cell lines with known DNA damage response pathways - wild type cell line (AID 743012); conditions: DT40 wild type chicken cells viability, CellTiter-Glo, 40 h; activity change, negative = cytotoxicity: at 68.4 µM (top of the series) unless noted; note: nearly all actives have a fitted effect of over 60% in size; note: potency is the fitted concentration of half-maximal effect; for activity change, negative = cytotoxicity: % is set by controls: 0 for no effect and ±100 for the full control effect
Outline: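 Viability of DNA repair-proficient chicken DT40 cells was assessed by CellTiter-Glo luminescence following 40 h compound exposure at 37 C/5% CO2.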

[2] = qHTS assay for identifying genotoxic compounds that show differential cytotoxicity against isogenic chicken DT40 cell lines with known DNA damage response pathways - Rev3 mutant cell line (AID 743014); conditions: chicken DT40 Rev3-/- viability, CellTiter-Glo, 40 h; activity, negative = cytotoxicity: at 68.4 µM (top of the series) unless noted; note: nearly all actives have a fitted effect of over 55% in size; note: potency is the fitted concentration of half-maximal effect
[3] = qHTS assay for identifying genotoxic compounds that show differential cytotoxicity against isogenic chicken DT40 cell lines with known DNA damage response pathways - Rad54/Ku70 mutant cell line (AID 743015); conditions: DT40 Rad54/Ku70 mutant viability, CellTiter-Glo, 40 h; activity change, negative = cytotoxicity: at 66.8 µM (top of the series); note: potency is the fitted concentration of half-maximal effect; nearly all actives have a fitted effect of over 60% in size
[4] = qHTS assay to identify small molecule antagonists of the thyroid receptor (TR) signaling pathway - cell viability counter screen (AID 743064); conditions: GH3.TRE-Luc viability, CellTiter-Fluor, 24 h; activity change, negative = cytotoxic: at 70.3 µM (top of the series) unless noted; note: nearly all actives have a fitted effect of over 50% in size; note: potency is the fitted concentration of half-maximal effect
Outline: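 Rat GH3 pituitary tumor cells stably expressing two TR response elements driving luciferase were plated, rested 4 h, then dosed with library compounds and T3 (1 nM final). After 23.5 h at 37 °C, CellTiter-Fluor was added for 30 min and fluorescence recorded.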

[5] = qHTS assay to identify small molecule antagonists of the androgen receptor (AR) signaling pathway - cell viability counter screen (AID 743033; note: nearly all actives have a fitted effect of over 45% in size; note: potency is the fitted concentration of half-maximal effect); conditions: AR-bla HEK293 viability, CellTiter-Glo luminescence, 16 h; activity change, negative = cytotoxicity: at 58.5 µM (top of the series)
[6] = qHTS assay to identify small molecule antagonists of the androgen receptor (AR) signaling pathway using the MDA cell line - cell viability counter screen (AID 743041; note: potency is the fitted concentration of half-maximal effect; nearly all actives have a fitted effect of over 45% in size); conditions: MDA-kb2 viability, CellTiter-Fluor, 16 h, cells co-treated with R1881 androgen agonist; viability change, negative = cytotoxic: at 70.3 µM (top of the series) unless noted
Outline: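 Compound exposure lasted 16 h at 37C in MDA-kb2 AR-luc cells stimulated with R1881. Protease-based CellTiter-Fluor reagent was applied for the final 30 min and fluorescence measured.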

[7] = qHTS assay to identify small molecule antagonists of the thyroid receptor (TR) signaling pathway (AID 743065); note: potency is the fitted concentration of half-maximal effect; nearly all actives have a fitted effect of over 55% in size
Outline: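 GH3.TRE-Luc rat pituitary cells (two TREs driving luciferase) were dosed with compound, then stimulated with 1 nM T3 (final) for 23.5 h at 37 C. ONE-Glo luminescence was the read-out, with CellTiter-Fluor fluorescence as the cytotoxicity counter-screen.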

[8] = tested on: thyroid hormone receptor (rat, GH3 cells); assay: qHTS assay to identify small molecule agonists of the thyroid receptor (TR) signaling pathway (AID 743066; calls by dose curve; note: % is set by controls: 0 for no effect and ±100 for the full control effect); conditions: GH3.TRE-Luc cells, TR agonist luciferase, 24 h; activation: at 83.9 µM (top of the series) unless noted
[9] = qHTS assay to identify small molecule antagonists of the estrogen receptor alpha (ER-alpha) signaling pathway - cell viability counter screen (AID 743074; calls by dose curve; note: nearly all actives have a fitted effect of over 45% in size; note: potency is the fitted concentration of half-maximal effect)
[10] = qHTS assay to identify aromatase inhibitors - cell viability counter screen (AID 743084); conditions: MCF-7 aro ERE viability, CellTiter-Fluor, 24 h; activity change, negative = cytotoxicity: at 70.3 µM (top of the series);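 note: cells stimulated with testosterone during compound exposure; nearly all actives have a fitted effect of over 55% in size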; note: potency is the fitted concentration of half-maximal effect
[11] = biological target: Estrogen receptor (Homo sapiens) (UniProt P03372); assay: qHTS assay to identify small molecule antagonists of the estrogen receptor alpha (ER-alpha) signaling pathway (AID 743069; active = well fitted curve in the direction sought with a large enough effect in the signal ratio in the repeat runs, not every such curve was filed as active; inconclusive = weak or mixed curves, or effect the other way; inactive = no such curve, though single readings can be large or run the other way; the % refers to the signal ratio; note: potency is the fitted concentration of half-maximal effect); conditions: HEK293 ER-alpha-UAS-bla, beta-lactamase ratio, antagonist mode; activity, negative = inhibition: at 69.4 µM (top of the series) unless noted
Outline: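 In this cell-based reporter format, GripTite HEK293 cells harbouring ER-alpha-UAS-bla were grown overnight with 2% charcoal-stripped FBS, dosed with DMSO-dissolved compounds, then challenged with 17beta-estradiol. After 18 hr at 37C, beta-lactamase activity was detected by FRET fluorescence.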

[12] = biological target: Estrogen receptor (Homo sapiens) (UniProt P03372); assay: qHTS assay to identify small molecule agonists of the estrogen receptor alpha (ER-alpha) signaling pathway using the BG1 cell line (AID 743079); conditions: BG1Luc4E2 cells, ERE-luciferase agonist, 22 h; activation: at 70.3 µM (top of the series) unless noted; note: nearly all actives have a fitted effect of over 20% in size; note: potency is the fitted concentration of half-maximal effect
[13] = biological target: Androgen receptor (Homo sapiens) (UniProt P10275); assay: qHTS assay to identify small molecule agonists of the androgen receptor (AR) signaling pathway (AID 743036; active = well fitted activation curve with a large enough effect in the signal ratio in the repeat runs, with a control signal flat, not every such curve was filed as active; inconclusive = weak or mixed curves, or effect the other way; inactive = no such curve, though single readings can be large or run the other way; the % refers to the signal ratio; note: % is set by controls: 0 for no effect and ±100 for the full control effect); conditions: HEK293 AR-UAS-bla GripTite, beta-lactamase FRET ratio, 16 h; activation: at 62.4 µM (top of the series) unless noted
Outline: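 Quantitative HTS of the Tox21 10K library in HEK293 cells bearing a stably integrated UAS-controlled beta-lactamase reporter. Compound exposure lasted 16 h at 37C. Reporter activity was detected by FRET substrate fluorescence after 2 h at room temperature.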

[14] = biological target: Aromatase (Homo sapiens) (UniProt P11511); assay: qHTS assay to identify aromatase inhibitors (AID 743083); note: potency is the fitted concentration of half-maximal effect; nearly all actives have a fitted effect of over 55% in size
[15] = biological target: Androgen receptor (Homo sapiens) (UniProt P10275); assay: qHTS assay to identify small molecule antagonists of the androgen receptor (AR) signaling pathway (AID 743035; active = well fitted inhibition curve with a large enough effect in the signal ratio in the repeat runs, not every such curve was filed as active; inconclusive = weak or mixed curves, or effect the other way; inactive = no such curve, though single readings can be large or run the other way; the % refers to the signal ratio; note: % is set by controls: 0 for no effect and ±100 for the full control effect); conditions: HEK293 AR-UAS-bla, R1881-stimulated, beta-lactamase FRET, 16 h; activity change, negative = inhibition: at 58.5 µM (top of the series) unless noted
Outline: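 Reporter HEK293 cells were exposed to compounds and R1881 overnight (16 h, 37C); beta-lactamase activity was then quantified by FRET fluorescence.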

[16] = qHTS assay to identify small molecule antagonists of the estrogen receptor alpha (ER-alpha) signaling pathway using the BG1 cell line (AID 743080; calls by dose curve;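 note: BG1 cells stimulated with 17beta-estradiol alongside compound; % is set by controls: 0 for no effect and ±100 for the full control effect; nearly all actives have a fitted effect of over 25% in size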); conditions: BG1Luc4E2 ERE-luciferase antagonist mode, luminescence; activity change, negative = inhibition: at 70.3 µM (top of the series) unless noted
Outline: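 Quantitative HTS on the Tox21 10K library: BG1 cells with endogenous ER-alpha and ERE-luciferase reporter, 17beta-estradiol stimulation, 21.5 h compound exposure, luminescence endpoint with parallel fluorescence cytotoxicity counter-read.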
Tags give direction and shape of the fitted curve or compound fluorescence and quenching.

Chain of UniProt P11511 (P11511 whole entry, looked up): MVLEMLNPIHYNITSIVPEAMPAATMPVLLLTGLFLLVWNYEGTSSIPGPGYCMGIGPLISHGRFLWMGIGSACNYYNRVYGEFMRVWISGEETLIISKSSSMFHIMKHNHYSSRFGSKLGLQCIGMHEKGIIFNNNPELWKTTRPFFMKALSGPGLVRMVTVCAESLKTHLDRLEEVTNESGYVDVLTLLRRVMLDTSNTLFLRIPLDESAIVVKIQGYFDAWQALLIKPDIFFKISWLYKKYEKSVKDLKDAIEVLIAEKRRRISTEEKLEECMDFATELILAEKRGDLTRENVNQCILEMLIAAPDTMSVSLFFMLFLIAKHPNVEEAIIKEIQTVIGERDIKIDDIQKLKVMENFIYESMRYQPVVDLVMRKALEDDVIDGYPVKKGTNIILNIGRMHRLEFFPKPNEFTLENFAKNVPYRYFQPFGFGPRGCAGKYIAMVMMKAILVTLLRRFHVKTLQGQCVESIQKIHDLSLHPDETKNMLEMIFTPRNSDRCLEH
Chain of UniProt P03372 (P03372 whole entry, looked up): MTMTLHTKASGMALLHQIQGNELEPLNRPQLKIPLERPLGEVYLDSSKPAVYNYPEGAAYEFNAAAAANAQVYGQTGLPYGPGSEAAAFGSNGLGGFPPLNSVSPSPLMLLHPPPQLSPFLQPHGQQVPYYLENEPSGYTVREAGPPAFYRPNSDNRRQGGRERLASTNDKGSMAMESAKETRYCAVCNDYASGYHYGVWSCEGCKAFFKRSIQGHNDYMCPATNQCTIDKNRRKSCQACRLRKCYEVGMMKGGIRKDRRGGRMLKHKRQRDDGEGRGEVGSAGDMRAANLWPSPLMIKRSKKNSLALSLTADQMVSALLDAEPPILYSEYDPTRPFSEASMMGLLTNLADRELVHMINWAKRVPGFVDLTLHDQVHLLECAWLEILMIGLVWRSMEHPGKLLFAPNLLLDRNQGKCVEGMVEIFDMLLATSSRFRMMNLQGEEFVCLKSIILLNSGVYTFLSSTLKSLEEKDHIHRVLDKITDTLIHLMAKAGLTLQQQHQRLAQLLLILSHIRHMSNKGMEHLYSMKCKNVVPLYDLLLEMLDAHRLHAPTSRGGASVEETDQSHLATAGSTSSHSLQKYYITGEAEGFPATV
Chain of UniProt P10275 (P10275 whole entry, looked up): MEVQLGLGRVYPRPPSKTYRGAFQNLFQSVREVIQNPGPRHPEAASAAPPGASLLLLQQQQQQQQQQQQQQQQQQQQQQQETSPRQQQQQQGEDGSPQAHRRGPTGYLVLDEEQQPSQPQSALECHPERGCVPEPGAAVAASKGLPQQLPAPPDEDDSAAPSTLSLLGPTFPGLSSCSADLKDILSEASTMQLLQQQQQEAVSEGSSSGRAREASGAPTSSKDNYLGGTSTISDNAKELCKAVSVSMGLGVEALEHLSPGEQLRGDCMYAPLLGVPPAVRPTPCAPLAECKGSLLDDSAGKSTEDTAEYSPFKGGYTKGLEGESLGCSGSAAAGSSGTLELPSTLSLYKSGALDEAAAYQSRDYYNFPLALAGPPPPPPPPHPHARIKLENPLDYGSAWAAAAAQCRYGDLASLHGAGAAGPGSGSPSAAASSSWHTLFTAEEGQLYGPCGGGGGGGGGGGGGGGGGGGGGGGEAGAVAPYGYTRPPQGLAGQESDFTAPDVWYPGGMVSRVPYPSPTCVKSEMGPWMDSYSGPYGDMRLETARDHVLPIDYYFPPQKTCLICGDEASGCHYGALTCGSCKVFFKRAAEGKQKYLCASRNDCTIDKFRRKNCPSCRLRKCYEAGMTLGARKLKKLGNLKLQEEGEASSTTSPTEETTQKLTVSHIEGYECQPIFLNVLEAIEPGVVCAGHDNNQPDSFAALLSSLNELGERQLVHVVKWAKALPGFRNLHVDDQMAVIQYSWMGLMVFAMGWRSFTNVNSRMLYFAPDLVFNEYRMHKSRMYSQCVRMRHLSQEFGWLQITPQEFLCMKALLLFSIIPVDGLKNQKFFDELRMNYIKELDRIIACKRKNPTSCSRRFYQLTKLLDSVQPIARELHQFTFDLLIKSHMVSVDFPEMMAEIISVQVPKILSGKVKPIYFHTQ

Question: Which Potency [1] does the source give for `CCOC(=O)CC(O)(CC(=O)OCC)C(=O)OCC` here?
Answer: inactive

Question: What about the Potency [2] of the same molecule?
Answer: inconclusive: 68.6 µM [cytotoxic, single point]

Question: And the Potency [3]?
Answer: inconclusive: 68.6 µM [cytotoxic, single point]

Question: What about the Potency [4] of the same molecule?
Answer: inconclusive: 38.6 µM [rising, partial curve, poor fit]

Question: What does the source list for `C(=C\c1ccccc1)/CN1CCN(C(c2ccccc2)c2ccccc2)CC1`?
Answer: Potency [1]: inconclusive: 8.04 µM [cytotoxic, partial curve]; Potency [2]: inactive; Potency [3]: inconclusive: 7.17 µM [cytotoxic, full curve]; Potency [5]: inactive; Potency [6]: inconclusive: 5.3 nM [rising, full curve, poor fit]; Potency [4]: active: 12.7 µM; Potency [7]: inconclusive: 14.3 µM [inhibitor, single point]; activation [8]: inconclusive: -9.72% [phenotype inactive] [at 39.4 µM]; Potency [9]: inactive; Potency [10]: inactive

Question: For `C/C=C(C)/C=C/C=C(C)C`, which Potency [1] is on record?
Answer: inconclusive: 67.8 µM [cytotoxic, single point]

Question: And the Potency [2]?
Answer: inconclusive: 67.8 µM [cytotoxic, single point] and inconclusive: 68.6 µM [cytotoxic, single point]

Question: And the Potency [3]?
Answer: inconclusive: 67.8 µM [cytotoxic, single point]

Question: And the Potency [4]?
Answer: inactive

Question: And the Potency [7]?
Answer: inconclusive: 76 µM [inhibitor] and inconclusive: 77 µM [inhibitor, partial curve, poor fit]

Question: What about the Potency [9] of the same molecule?
Answer: inactive

Question: For `Cc1ccc(S(=O)(=O)NC2CCCCC2)cc1`, which Potency [1] is on record?
Answer: inconclusive: 76.4 µM [cytotoxic, single point]

Question: And the Potency [2]?
Answer: inconclusive: 68.1 µM [cytotoxic, single point]

Question: What about the Potency [3] of the same molecule?
Answer: inconclusive: 68.1 µM [cytotoxic, single point]

Question: And the Potency [5]?
Answer: inactive

Question: And the Potency [11]?
Answer: inconclusive: 48.6 µM [rising, partial curve]

Question: And the activation [12]?
Answer: inconclusive: -17.4% [phenotype inactive]

Question: And the Potency [10]?
Answer: inconclusive: 48.2 µM [cytotoxic, partial curve]

Question: Which results are given for `CCCCCCCCCCC=CC1CC(=O)OC1=O` (centres undefined)?
Answer: Potency [1]: inconclusive: 68.6 µM [cytotoxic]; Potency [2]: inconclusive: 68.9 µM [cytotoxic, partial curve, poor fit] and inconclusive: 68.6 µM [cytotoxic, single point]; Potency [3]: inconclusive: 54.5 µM [cytotoxic, partial curve]; Potency [5]: inconclusive: 27.7 µM [cytotoxic, partial curve, poor fit]; Potency [7]: inconclusive: 68.9 µM [inhibitor, single point] and inconclusive: 61.1 µM [inhibitor, single point]; Potency [9]: inconclusive: 17.5 µM [cytotoxic, full curve]

Question: Which Potency [1] does the source give for `Nc1c(Cl)cc(Cl)cc1[N+](=O)[O-]` here?
Answer: inconclusive: 68.6 µM [cytotoxic]

Question: And the Potency [2]?
Answer: inconclusive: 61.1 µM [cytotoxic, single point]

Question: What about the Potency [3] of the same molecule?
Answer: inconclusive: 68.6 µM [cytotoxic, single point]

Question: What about the activation [13] of the same molecule?
Answer: inconclusive: 10.9%

Question: And the Potency [4]?
Answer: inactive

Question: What about the Potency [14] of the same molecule?
Answer: inconclusive: 2.43 µM [inhibitor, partial curve, poor fit]

Question: Which Potency [1] does the source give for `CCCOC(=O)C(C)O` (centres undefined) here?
Answer: inconclusive: 78.5 µM [cytotoxic, single point]

Question: What about the Potency [2] of the same molecule?
Answer: inconclusive: 70 µM [cytotoxic, single point]

Question: What about the Potency [3] of the same molecule?
Answer: inconclusive: 70 µM [cytotoxic, single point]

Question: What about the Potency [5] of the same molecule?
Answer: inconclusive: 62.9 µM [cytotoxic, single point]

Question: And the Potency [15]?
Answer: inactive

Question: And the Potency [4]?
Answer: inconclusive: 49.5 µM [rising, partial curve, poor fit]

Question: What about the Potency [16] of the same molecule?
Answer: inactive

Question: What about the Potency [14] of the same molecule?
Answer: inconclusive: 70 µM [inhibitor, single point]

Question: And the Potency [10]?
Answer: inconclusive: 70 µM [cytotoxic, single point]

Question: What does the source list for `CC(C)(C)c1csc(-c2cc3cc(OCc4ccccc4CC(=O)O)ccc3o2)n1`?
Answer: Potency [1]: inconclusive: 68.6 µM [cytotoxic, single point]; Potency [2]: inconclusive: 61.1 µM [cytotoxic, single point]; Potency [3]: active: 61.1 µM; Potency [5]: inconclusive: 49 µM [cytotoxic, partial curve]; Potency [4]: active: 54.5 µM; Potency [11]: inconclusive: 7.76 µM [rising, full curve]; Potency [9]: active: 24.5 µM; Potency [12]: inconclusive: 68.6 µM [inhibitor, partial curve, poor fit]; activity change, negative = inhibition [16]: inconclusive: -6.56%; Potency [14]: inconclusive: 77 µM [inhibitor, single point]; Potency [10]: inconclusive: 68.6 µM [cytotoxic, single point]
